Measured values from paper PMC12820563, “FoxP3 forms a head-to-head dimer in vivo and stabilizes its multimerization on adjacent microsatellites”.
The other results are listed elsewhere or left out.

These sequences were tested against T1, MBP-FoxP1dN (Mus musculus, UniProt P58462 326-579) (assay: PD-seq (MBP pull-down with sequencing); 20 mM Tris-HCl pH 7.5, 100 mM NaCl, 1.5 mM MgCl2, 0.4 uM protein, 0.1 uM dsDNA library, 30 min, room temperature, amylose pull-down; high values mean tight binding). Conditions: protein: recombinant; tags: His6-MBP; chain copies: 2; dsDNA, one strand shown.
T1 sequence: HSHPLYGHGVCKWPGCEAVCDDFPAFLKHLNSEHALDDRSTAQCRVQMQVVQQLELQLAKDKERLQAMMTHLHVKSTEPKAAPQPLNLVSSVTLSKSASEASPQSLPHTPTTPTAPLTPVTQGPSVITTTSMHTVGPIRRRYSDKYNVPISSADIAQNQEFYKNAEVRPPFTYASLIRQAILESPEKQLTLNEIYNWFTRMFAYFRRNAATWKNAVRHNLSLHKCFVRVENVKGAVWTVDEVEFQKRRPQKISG
Outline: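 The N-terminus-lacking fragment of mouse FoxP3 or FoxP1 carried a His6-MBP tag and was expressed in E. coli. At 0.4 µM it was incubated with 0.1 µM Klenow-filled degenerate double-stranded DNA library for 30 min at room temperature in Tris pH 7.5 buffer with NaCl and MgCl2, and complexes were caught on amylose resin, washed three times, released with proteinase K, PCR-barcoded and Illumina-sequenced. Binding is reads-per-million enrichment of pull-down over input with replicates pooled.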

| Sequence | binding signal |
| --- | --- |
| GATGATTGTTCTCCCAGCTGATGAATTTGGAATCTCGAGTAAACAAATTTTCCTAATCTTTCTGTTCAAGCGCCATCTAC | 0.84 RPM ratio (pull-down/input) |
| GATGATTGTTCTCCCAGCTGATGAATTGAACGGTTCGAGTAAACAAATTTTCCTAATCTTTCTGTTCAAGCGCCATCTAC | 0.891 RPM ratio (pull-down/input) |
| GATGATTGTTCTCCCAGCTGATGAATTTCATTTATCGAGTAAACAAATTTTCCTAATCTTTCTGTTCAAGCGCCATCTAC | 1.14 RPM ratio (pull-down/input) |
| GATGATTGTTCTCCCAGCTGATGAATTCATAGGCTCGAGTAAACAAATTTTCCTAATCTTTCTGTTCAAGCGCCATCTAC | 0.747 RPM ratio (pull-down/input) |
| GATGATTGTTCTCCCAGCTGATGAATTTATGGCATCGAGTAAACAAATTTTCCTAATCTTTCTGTTCAAGCGCCATCTAC | 1.2 RPM ratio (pull-down/input) |
| GATGATTGTTCTCCCAGCTGATGAATTAGTCGGCTCGAGTAAACAAATTTTCCTAATCTTTCTGTTCAAGCGCCATCTAC | 0.804 RPM ratio (pull-down/input) |
| GATGATTGTTCTCCCAGCTGATGAATTCTGGCCATCGAGTAAACAAATTTTCCTAATCTTTCTGTTCAAGCGCCATCTAC | 0.77 RPM ratio (pull-down/input) |
| GATGATTGTTCTCCCAGCTGATGAATTATCTAGATCGAGTAAACAAATTTTCCTAATCTTTCTGTTCAAGCGCCATCTAC | 0.863 RPM ratio (pull-down/input) |
| GATGATTGTTCTCCCAGCTGATGAATTTGGTCCATCGAGTAAACAAATTTTCCTAATCTTTCTGTTCAAGCGCCATCTAC | 0.927 RPM ratio (pull-down/input) |
| GATGATTGTTCTCCCAGCTGATGAATTAGCTCTATCGAGTAAACAAATTTTCCTAATCTTTCTGTTCAAGCGCCATCTAC | 0.887 RPM ratio (pull-down/input) |
| GATGATTGTTCTCCCAGCTGATGAATTCGAGCAATCGAGTAAACAAATTTTCCTAATCTTTCTGTTCAAGCGCCATCTAC | 1.04 RPM ratio (pull-down/input) |
| GATGATTGTTCTCCCAGCTGATGAATTGTGCAATTCGAGTAAACAAATTTTCCTAATCTTTCTGTTCAAGCGCCATCTAC | 1.24 RPM ratio (pull-down/input) |
| GATGATTGTTCTCCCAGCTGATGAATTTTGTATATCGAGTAAACAAATTTTCCTAATCTTTCTGTTCAAGCGCCATCTAC | 2.33 RPM ratio (pull-down/input) |
| GATGATTGTTCTCCCAGCTGATGAATTATGAGAATCGAGTAAACAAATTTTCCTAATCTTTCTGTTCAAGCGCCATCTAC | 0.995 RPM ratio (pull-down/input) |
| GATGATTGTTCTCCCAGCTGATGAATTTCGAGCGTCGAGTAAACAAATTTTCCTAATCTTTCTGTTCAAGCGCCATCTAC | 0.777 RPM ratio (pull-down/input) |
| GATGATTGTTCTCCCAGCTGATGAATTGACTTCTTCGAGTAAACAAATTTTCCTAATCTTTCTGTTCAAGCGCCATCTAC | 0.996 RPM ratio (pull-down/input) |
| GATGATTGTTCTCCCAGCTGATGAATTGATTGTCTCGAGTAAACAAATTTTCCTAATCTTTCTGTTCAAGCGCCATCTAC | 1.16 RPM ratio (pull-down/input) |
| GATGATTGTTCTCCCAGCTGATGAATTTATGAACTCGAGTAAACAAATTTTCCTAATCTTTCTGTTCAAGCGCCATCTAC | 1.04 RPM ratio (pull-down/input) |
| GATGATTGTTCTCCCAGCTGATGAATTTGCTACCTCGAGTAAACAAATTTTCCTAATCTTTCTGTTCAAGCGCCATCTAC | 0.995 RPM ratio (pull-down/input) |
| GATGATTGTTCTCCCAGCTGATGAATTATTTATGTCGAGTAAACAAATTTTCCTAATCTTTCTGTTCAAGCGCCATCTAC | 1.83 RPM ratio (pull-down/input) |

| Sequence | binding signal |
| --- | --- |
| GATGATTGTTCTCCCAGCTGATGAATTCCCCACCTCGAGTAAACAAATTTTCCTAATCTTTCTGTTCAAGCGCCATCTAC | 0.815 RPM ratio (pull-down/input) |
| GATGATTGTTCTCCCAGCTGATGAATTTGCAACGTCGAGTAAACAAATTTTCCTAATCTTTCTGTTCAAGCGCCATCTAC | 1.13 RPM ratio (pull-down/input) |
| GATGATTGTTCTCCCAGCTGATGAATTGCGCTCTTCGAGTAAACAAATTTTCCTAATCTTTCTGTTCAAGCGCCATCTAC | 1.07 RPM ratio (pull-down/input) |
| GATGATTGTTCTCCCAGCTGATGAATTTCGCCTGTCGAGTAAACAAATTTTCCTAATCTTTCTGTTCAAGCGCCATCTAC | 0.826 RPM ratio (pull-down/input) |
| GATGATTGTTCTCCCAGCTGATGAATTAGTTTCGTCGAGTAAACAAATTTTCCTAATCTTTCTGTTCAAGCGCCATCTAC | 0.978 RPM ratio (pull-down/input) |
| GATGATTGTTCTCCCAGCTGATGAATTGATAATGTCGAGTAAACAAATTTTCCTAATCTTTCTGTTCAAGCGCCATCTAC | 1.19 RPM ratio (pull-down/input) |
| GATGATTGTTCTCCCAGCTGATGAATTCAATCCCTCGAGTAAACAAATTTTCCTAATCTTTCTGTTCAAGCGCCATCTAC | 0.823 RPM ratio (pull-down/input) |
| GATGATTGTTCTCCCAGCTGATGAATTCTTATGATCGAGTAAACAAATTTTCCTAATCTTTCTGTTCAAGCGCCATCTAC | 0.993 RPM ratio (pull-down/input) |
| GATGATTGTTCTCCCAGCTGATGAATTTATATAGTCGAGTAAACAAATTTTCCTAATCTTTCTGTTCAAGCGCCATCTAC | 1.13 RPM ratio (pull-down/input) |
| GATGATTGTTCTCCCAGCTGATGAATTGGCAGCATCGAGTAAACAAATTTTCCTAATCTTTCTGTTCAAGCGCCATCTAC | 0.996 RPM ratio (pull-down/input) |
| GATGATTGTTCTCCCAGCTGATGAATTTGTTACTTCGAGTAAACAAATTTTCCTAATCTTTCTGTTCAAGCGCCATCTAC | 1.45 RPM ratio (pull-down/input) |
| GATGATTGTTCTCCCAGCTGATGAATTTGAGCACTCGAGTAAACAAATTTTCCTAATCTTTCTGTTCAAGCGCCATCTAC | 0.862 RPM ratio (pull-down/input) |
| GATGATTGTTCTCCCAGCTGATGAATTCCGCCGGTCGAGTAAACAAATTTTCCTAATCTTTCTGTTCAAGCGCCATCTAC | 0.758 RPM ratio (pull-down/input) |
| GATGATTGTTCTCCCAGCTGATGAATTCGGACCTTCGAGTAAACAAATTTTCCTAATCTTTCTGTTCAAGCGCCATCTAC | 0.794 RPM ratio (pull-down/input) |
| GATGATTGTTCTCCCAGCTGATGAATTACTTGTCTCGAGTAAACAAATTTTCCTAATCTTTCTGTTCAAGCGCCATCTAC | 1.11 RPM ratio (pull-down/input) |
| GATGATTGTTCTCCCAGCTGATGAATTCGTATGGTCGAGTAAACAAATTTTCCTAATCTTTCTGTTCAAGCGCCATCTAC | 0.913 RPM ratio (pull-down/input) |
| GATGATTGTTCTCCCAGCTGATGAATTGCGGAACTCGAGTAAACAAATTTTCCTAATCTTTCTGTTCAAGCGCCATCTAC | 0.98 RPM ratio (pull-down/input) |
| GATGATTGTTCTCCCAGCTGATGAATTCTCAGCTTCGAGTAAACAAATTTTCCTAATCTTTCTGTTCAAGCGCCATCTAC | 0.794 RPM ratio (pull-down/input) |
| GATGATTGTTCTCCCAGCTGATGAATTCCCTGGATCGAGTAAACAAATTTTCCTAATCTTTCTGTTCAAGCGCCATCTAC | 0.811 RPM ratio (pull-down/input) |
| GATGATTGTTCTCCCAGCTGATGAATTCCCCCTTTCGAGTAAACAAATTTTCCTAATCTTTCTGTTCAAGCGCCATCTAC | 0.861 RPM ratio (pull-down/input) |
